PMC4336329 (PLoS ONE, 2015)
In all, about 310,000 compounds went through this assay and about 2,200 (0.71%) showed an effect of 50% or more. Effects have a minus sign here. This is one part of the list.

The compounds below were run against human ether-à-go-go-related gene (hERG) potassium channel (human, UniProt Q12809) (assay: primary screen, population patch clamp on CHO cells stably expressing hERG).
human ether-à-go-go-related gene (hERG) potassium channel, sequence (Q12809 whole entry, looked up): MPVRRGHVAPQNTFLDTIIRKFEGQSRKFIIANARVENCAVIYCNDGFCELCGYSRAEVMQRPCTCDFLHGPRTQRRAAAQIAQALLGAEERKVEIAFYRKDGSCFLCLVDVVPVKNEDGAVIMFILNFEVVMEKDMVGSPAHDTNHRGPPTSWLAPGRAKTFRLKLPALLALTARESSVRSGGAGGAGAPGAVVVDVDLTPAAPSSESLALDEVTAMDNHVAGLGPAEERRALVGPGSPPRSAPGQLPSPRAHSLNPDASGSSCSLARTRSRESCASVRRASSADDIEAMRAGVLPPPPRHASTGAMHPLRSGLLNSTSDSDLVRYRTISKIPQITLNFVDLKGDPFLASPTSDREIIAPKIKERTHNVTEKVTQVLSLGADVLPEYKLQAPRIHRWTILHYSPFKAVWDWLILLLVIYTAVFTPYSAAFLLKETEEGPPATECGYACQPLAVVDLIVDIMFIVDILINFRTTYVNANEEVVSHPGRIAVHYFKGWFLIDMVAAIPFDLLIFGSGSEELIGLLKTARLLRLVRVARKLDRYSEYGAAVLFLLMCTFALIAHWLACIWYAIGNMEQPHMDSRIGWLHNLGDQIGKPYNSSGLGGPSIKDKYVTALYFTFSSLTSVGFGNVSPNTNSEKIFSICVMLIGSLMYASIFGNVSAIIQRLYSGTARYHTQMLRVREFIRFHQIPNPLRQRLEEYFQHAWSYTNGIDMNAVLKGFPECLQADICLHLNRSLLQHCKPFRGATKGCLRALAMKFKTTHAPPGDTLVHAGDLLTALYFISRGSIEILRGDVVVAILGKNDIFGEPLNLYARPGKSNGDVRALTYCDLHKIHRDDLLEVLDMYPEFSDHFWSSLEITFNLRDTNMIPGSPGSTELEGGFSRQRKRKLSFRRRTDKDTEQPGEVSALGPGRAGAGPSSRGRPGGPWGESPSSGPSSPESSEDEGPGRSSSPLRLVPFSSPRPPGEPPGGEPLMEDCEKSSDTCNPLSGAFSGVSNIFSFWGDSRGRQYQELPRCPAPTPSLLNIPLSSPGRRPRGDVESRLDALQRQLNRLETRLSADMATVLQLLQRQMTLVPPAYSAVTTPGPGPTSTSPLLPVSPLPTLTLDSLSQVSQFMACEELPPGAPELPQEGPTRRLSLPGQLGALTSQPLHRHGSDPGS

| Structure (SMILES) | hERG current change (%, negative = inhibition) at 1uM [%] |
| --- | --- |
| COc1ccccc1/C=C/C(=O)NNC(=O)c1cccs1 | 11.1 |
| Cc1cc(C(F)(F)F)nc(SCC(=O)NC2CC3CCC2C3)n1 (stereo not shown) | -2.17 |
| CC(Oc1ccc(Cl)cc1Cl)C(=O)NNC(=O)C(=O)N1CCCCC1 (stereo not shown) | 6.63 |
| COC1CC(OC2CCC3(C)C(CCC4C3CCC3(C)C(C5=CC(=O)OC5)C(OC(C)=O)CC43O)C2)OC(C)C1OC1OC(COC2OC(CO)C(O)C(O)C2O)C(O)C(O)C1O (stereo not shown) | 13.8 |
| COc1ccc(SCCc2nnc(-c3ccccc3)o2)cc1 | 13.9 |
| O=C(NCC(c1ccco1)N1CCN(c2ccccc2F)CC1)C(=O)NC1CCCC1 (stereo not shown) | 5.22 |
| O=C1CCCC(=O)N1c1ccc(N2CCOCC2)c([N+](=O)[O-])c1 | 10.5 |
| O=C(NCC(c1cccnc1)N1CCN(c2ccccc2F)CC1)Oc1ccccc1 (stereo not shown) | 9.57 |
| COc1ccc(C(=O)NC(=S)NNC(=O)c2cnccn2)cc1OC | 8.33 |
| CCOCCCN1CC(C(=O)NCCc2ccc(C)cc2)CC1=O (stereo not shown) | 4.18 |
| CCOC(=O)c1c(C)[nH]c(C)c1C(=O)COC(=O)/C=C/c1ccco1 | 5.79 |
| CC1=Nc2ccccc2NC(=O)C1Sc1nnc(C)s1 (stereo not shown) | 2.65 |
| CCNS(=O)(=O)c1ccc(NC(=O)c2ccccc2)cc1 | -9.02 |
| COC(=O)CC1C(=O)NCCN1C(=S)Nc1ccc(F)cc1 (stereo not shown) | 11.4 |
| Cn1c2ccccc2c(=O)c2ccc(-c3ccc4c(c3)OCO4)cc21 | 11.5 |
| CCn1c(C)c(C(C)=O)c(N2CCN(C(c3ccccc3)c3ccccc3)CC2)nc1=S | 6.03 |
| CC(=O)NC12CC3CC(C1)CC(C(=O)NCc1ccc(C)cc1)(C3)C2 | 14 |
| COc1ccc(CCNC(=O)CSCC(=O)Nc2ccccc2)cc1OC | 16.9 |
| CCCCOC(=O)c1ccc(NC(=S)NC(=O)c2c(Cl)cnn2C)cc1 | 8.7 |
| CSCCC(NC(=O)c1ccc(Cl)cc1Cl)C(=O)NNC(=O)c1ccncc1 (stereo not shown) | 4.03 |
| COC(=O)CCCCC1SCC(NC(=O)c2ccccc2)C1=O (stereo not shown) | -0.542 |
| COc1ccc(-c2ocnc2C(=O)N2CCN(Cc3cccnc3)CC2)cc1 | 14.3 |
| Cn1cccc1C(=O)OCc1ccc(F)cc1 | 9.18 |
| CCOc1ccc(Cl)cc1S(=O)(=O)N1CCN(c2ccc(C)c(C)c2)CC1 | 1.54 |
| CCOc1ccc(Cl)cc1CNCCNCCO.Cl | 19.9 |
| O=C(c1cccs1)C1C(c2ccc(Br)cc2)NC(=S)NC1(O)C(F)(F)F (stereo not shown) | -2.57 |
| CCCn1c(=O)c(C(=O)Nc2ccccc2C(=O)OCC)c(O)c2ccccc21 | 16.2 |
| C=CCn1c(SCC(=O)N2CCOCC2)nnc1C(C)NC(=O)c1ccccc1 (stereo not shown) | 13.4 |

| Structure (SMILES) | hERG current change (%, negative = inhibition) at 1uM [%] |
| --- | --- |
| CN(/N=C/C=C/c1ccccc1)c1cc(=O)n(C)c(=O)[nH]1 | -1.83 |
| Cc1ccc(S(=O)(=O)NC(=O)c2cccn2C)cc1 | 13.6 |
| C=COCCn1c(=N)n(CCC)c2ccccc21.Cl | -9.91 |
| COc1ccc(CCN=C(N)NS(=O)(=O)c2cc(F)ccc2F)cc1 | -10.2 |
| O=C(c1cn(-c2ccccc2)nc1-c1cccs1)N1CCN(c2ccccn2)CC1 | 4.93 |
| Cc1cc(N2CCCCC2)nc(N)n1 | -1.75 |
| O=C(COC(=O)c1cc(S(=O)(=O)N2CCc3ccccc3C2)ccc1Cl)NCc1ccco1 | 6.96 |
| Cc1ccc(NC(=O)Cn2c(=O)c3cccn3c3ccccc32)c(Cl)c1 | 17.7 |
| Cc1ccc(C)c(OC(=O)c2cccnc2)c1 | 14.1 |
| CCOc1ccc(S(=O)(=O)Nc2ccc(C(=O)N/N=C/c3c(C)nn(-c4ccccc4)c3N3CCCC3)cc2)cc1 | 10.7 |
| N#Cc1ccccc1CSCCNC(=O)Cc1c(F)cccc1Cl | 14.4 |
| CCOC(=O)CSc1nc2c(sc3ccc([N+](=O)[O-])cc32)c(=O)n1Cc1ccco1 | 10.1 |
| COC(=O)C1CCN(Cc2cc(=O)oc3cc(OC)ccc23)CC1 | -1.21 |
| CCc1cc(=O)oc2c3c(cc(OCC(=O)NCc4ccccn4)c12)OC(C)(C)CC3 | 9.67 |
| Cc1cccc(C(=O)NCC(=O)NCCCSc2ccccc2)c1 | 11.6 |
| COc1cccc(-c2nc(CCl)cs2)c1OC.Cl | 9.59 |
| Cc1ccc2nsnc2c1NC(=O)c1ccc([N+](=O)[O-])o1 | 14.6 |
| COC(=O)c1cc(C)sc1NC(=S)N1CCN(CCc2ccccc2)CC1 | 2.27 |
| CCCc1nc(SCC(=O)Nc2nnc(CC)s2)c2c(C)c(C)sc2n1 | 23.7 |
| COc1cc(OC)cc(-n2nc(C(=O)NCCCN3CCOCC3)c3ccccc3c2=O)c1 | 2.78 |
| O=C1c2ccc(-c3nc4ccccc4o3)cc2C(=O)N1Cc1cccnc1 | 12.9 |
| C=CCN(CC(=O)c1sc(C(=O)OCC)nc1C)c1cccc(Br)c1 | 13 |
| O=C(O)C(Cc1cc2ccccc2[nH]1)N1C(=O)C2CC=C(Cl)CC2C1=O (stereo not shown) | -0.378 |
| CCOc1cc(C2CC(=O)c3c(ccc4ccccc34)N2)ccc1O (stereo not shown) | 4.04 |
| Cc1ccc(NC(=O)C2C3C=CC4(O3)C2C(=O)N(CCN2CCOCC2)C4C(=O)NC2CCCCC2)cc1C (stereo not shown) | 12.7 |
| COc1cc(/C=N/n2nnnc2N)ccc1OCc1c(C)no[n+]1[O-] | 11.4 |
| O=C(O)C(=O)O.O=C(c1ccco1)N1CCN(S(=O)(=O)c2ccc([N+](=O)[O-])cc2)CC1 | 1.29 |
